Data taken from the RNAGym collection of RNA variant scans (doi:10.1073/pnas.2313332121).
Variants at the background level are over-represented here.

B1: TPR 5TU (parent)
chain: GGAUCUUCUCGAUCUAACAAAAAAGACAAAUCUGCCACAAAGCUUGAGAGCAUCUUCGGAUGCAGAGGCGGCAGCCUUCGGUGGCGCGAUAGCGCCAACGUUCUCAACUAUGACACGCAAAACGCGUGCUCCGUUGAAUGGAGUUUAUCAUG

Variants of: B1
Assay: polymerase ribozyme fitness, log enrichment relative to wild type (log ratio); higher = more active; in vitro selection for triplet polymerase activity
How it was run: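 The heterodimeric triplet polymerase ribozyme's subunits were each mutagenized into PCR-built libraries and transcribed. Every library was selected once, in triplicate, by annealing with a biotinylated primer, the partner subunit and triplets, incubating frozen at −7 °C, gel-excising extended constructs, capturing on streptavidin beads and running RT-PCR. Input and output libraries were Illumina-sequenced, with genotypes kept only at ≥10 input reads and ≥1 read per output. Fitness, from inverse-variance-weighted replicate averages, is the base-2 logarithm of genotype enrichment over wild-type enrichment.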

Polymerase ribozyme fitness (log ratio), ≤ -4.2:
A16U A47U G48A G68U A73G U77C C96U G136U
U15G G50A U104C A137U
A17G A30C C51U G81C C96U U101G U144C
A17G G71U C87A C125A G126U
A17U A40U C54A C108G
A16U A29G A30G C85U
A16U C63A A91G G92U C123A U134A U145G
C18G A22C C36G G83C G84A G92A A137C G143C
A16G A19C A30U A64G A73U G86U
A16U A37U U53A G67U C105U A107G
A16U A21U A138C
A17C C43U C79G G92A G112C A142G U144A
C18U G86C C125U A137C
U15C G42U A115G G141A
A17U U61A G84A U90G A119C C123A U148A
C18U A30G A41C A47C A107U A142G
A16C A22U A49C G59C C93A
A16U A30G G50U G68A G80A G94A U144G
C18G G133U U139C U145G A150G
A17U C72G U144A
A16U G50U A52C A73G C85G A91U C105A
U15G C38U G59U A91U C132G U134G A150G
A16U C132G
A16U G74C U101C C116U G143U
A16C A21C G81A G92U G94C A115C A122U G126U
C18G A22G G25U A41U G94A U127C C131G
U15G C27A U53C C116G
A17U A30C U53A G65U G83A
A17C A30C A73G C87A
A16C U31C G34A U77G A89U C103A A106G A110G U111G
A17G A19U U31A C35U A52G G74U G88A
C18A A22G A29G C76A G84A
A17G A29G U45C U61A C75G
A16G G83U C87U C93G
A16C A37C C43G G86C U148C
A17U C87G A91C C103U C114U U144G
A17G C57U U61A U78C C103U G141U
C18G C93U C149A
A17C C18G G46A G128U C131G
C18A U53A G65U G67C G83C
A16U A24G U53A G59U C85A A138C
C18G A26U A37C U55A U61G G71A C93A G94A U109G
A16C G48A G50C C96U G100U U139G
C18U G46A U53A U77A G80A C85A A98U U102C C132G A138G
A17C A21C C54U A91U U145G
A17U A23G A30G G34U C57U C95G C99G C114U A137C A150C
A17G A28C G59A A66C C72U G92U
C18A U33G C36U G58C G94A C123G A138G
A16G A24G C27G A41U U53A U78C G124A
U15G C35G U55A U56A A60G U61A A64G C85A U90G C95U A97G C108A
A17G A30C A47C C87A C95G A120U U148C
C18G U33C G46A C51A C87G C96U A97U A110C U145C
A17C A23C A24U A37C A40U A66C C72U A73G G84U G86A
U15G A19U U31A G70A
A16C A23C A26C A49C U55A G86U C129G G140A
U15G A16G A19U A52G G67C C87G G88A G126A
A16G A91C C105G U151C
A17U C38U G46A C54U C79U U135A
A16U A21C A26U U55A C76G C93U
U15G G86A A89C A121U G133A G141A U146G A150C
C18U A37C A52G G94A C114A
C18U C149A
A16G G46C U56A U61G G94A U101G
U15G A22G A49C C95A C96G G140C
A17U G46C G65A C85G G117U A122C A137G
A17G G42U C54A C85G A147C
A17U A20U C27G A39G U56A C96A C103U
U15G C54G G83C A97C A98G
A16C A30U C54A G84A A122U
A17U G50C A60U A119C A142G G143A
A16U A39G A49C C69A G83A
U15G A16G A47U G58A C69U A89G A98U
U15G A22C G25A A29U C85G G124A U127G G136U
U15G G50C U53G U55A C87U C99A C132U U134A A138U U148G
U15G G46A G58U G67A C75U U78C U82G G88A C93G A98U G124U C132U
A16C A29G C54G G58A G84U C131A U148C A150C
C18U G46A A52G C108U U111G C118A
U15G U31A G42C U55A A91C A97G
A17G A19C G48U A52C U53C U101G C108G G140U A150G G152U
C18G G50A C79G U134G
A16U G25C A64G G70A G84U A91U U102A C105U C114A C123A
A16G G48C U53A G92C C99U C105U U127G
C18U A26C U55G G58C C75A U78G U90C A91G C99A
A16U U44A C69A A97G G100C C116G A119U
A16G U53A G62A C85U A89U G128C
A17G U53A C75G C79G C85U C123A C132U G140A
A17G C18G G50C C72U C85G C95A
A16U G34C G94C
A17U A52G G58C G86U A97G C125A A142C
A16C U31G G59C C96G A97U G140C C149A
A16U G48C A73G C93U U102A
A17G A26U A39C C57U C99U C114U C118U A122U
U15G C36U C51G C75G C93U C108U C125U G136A
A17C C18A A49G U53A A73G G81U C87U C93G
U15G A28C A37U A39U G83C C132U A142C
U15G A19U C54A U56G A106G U148C
A17U G42A C85A C105U A107U A110C G136C
U15G A26C U31C U44G G46A C87U U101G C105U A106C U139C
A16G A49U C108U G117C A142C
A17U A21G A24U G88C G133U G141A
C18G A49G G50A C96U A113U G124U
C18A U53G A66C G94C C99G C116G
A17G G88U C96A
C18G C54A U56A A73G C96U A106C G124A
A17U G92U C103G U109G G117U A142G
A17C A40G C63U A89G G117A G126C U127A U135G U139C G143A
A17G A24C
A17G C87A
A17U A29U C36G U53A C54U U56A C85G
C18U A23U C93G U101G C108U A120U U135C G152A
C18G A19G A52C U78A G84U U135A
A16U U148A
U15G A20U G68A A73G G83U G84A C96A C114G G140C
A16U U33C C35U U45A A47G G70A G94A C125U U127A
A16C A28U C54U G92A A106U
A16U C32U U44A C93G
A16C A22U A41U C108A
A17C A91U G128A U139C A150U
A16G A19U A20U G59U U82A C99A A137C U148G
U15G A37C C43U C57G A97G
A17C C36G C76G A91U G92U A119U
A17G A64U G83U C95U A147C
A17G A24U C63A A64U A91C
A16U U33C G65C A66G C85G C103G C116A
A17G C51G C85A G92A G140U U145G
A16U C18A C35A C79A C85G G94A C96A
A17G A30C G94C A106G A115G
A16G A26U C72A C103G A142G
U15G A26C U55A G83U U102G C125G G143C
A16U A30U G34A C99G G141A U148A
A16G A22C C85U U134A G141A
A16U C32G C36A A113U A138U
A16G A17U A24C C36G C76A U77G C96U
U15G C36G C93G G124C C125U G141U G143A U146G
A17C A28G G83C G84A C87A A89G C105G G140U G152C
C18G A21U A24G U53A U82C A121G G126U G141C
A16C A64U A147C
A16U A24C A28U U45A U78C G83C A97G U104G G143C
A17C A20G A30U U31C A49U C51A U55A A91G A98G G112C G117U C118A
A17U A52C G88C U90G
C18G G83A G92C U109G C149G
A16U A23U C99G
A16C C87U U102C A147C
A17U C75A A91G G94C U146C U148A U151A
A16C A24U G50C A60C C79A U90C
A16U A21C G92A C116G U144G
U15G G25A G50C A52G C95U G133U
C18U U33C A52U G86A C118A G141A
A17G C27G U33G A49C C57A A73C C75U C99G A106C A115G U148A
U15G G50A C85U G126C A138G
A17C A29U C32G A39G C43U A60G U61A C85A C118G A119U C132G
U15G C43U C93A U148A
A16U G62A C75U U144A
U15G C32A A66G C72A C87G A142U
C18G G46A C75A U82A C87A A115G A137C
A17G U45A C54U G58A C76U G88C A110C U144A
C18U A19C A41G U44G A49C G88A A107U U134C G136A U148A
C18G G58A U61A C87A C93G C96G A115G G136U
A17U A40C G46A C76A C95A C125U
A16G C27A A39G G65U G71A A73G C96U
A16U A23U A28C A39U C79U G84A
A17U A20G A23G A40C U134A
C18U G70A G80A C96A G117U
C18U A41C G58A C63A A64C A91C G133A
A19C A20C G71U C76A C79A C87A
A16C C18G C36U A47G C75A C87U A115U U144A
U15C G70C A89U C95A A138G
